Laboratory results reported in ChEMBL document CHEMBL4888484, “Replenishing the malaria drug discovery pipeline: Screening and hit evaluation of the MMV Hit Generation Library 1 (HGL1) against asexual blood stage Plasmodium falciparum ,using a nano luciferase reporter read-out” (2022).
The campaign covered roughly 150,000 compounds. About 540 (0.36%) showed an effect of 50% or more. The list shows a part of the results.

tested on: Plasmodium falciparum; assay: Primary screen in NF54 nanoGlo assay, in single point, at 2uM, 72h; a lower Z score goes with more inhibition; type: functional, Erythrocyte; conditions: timepoint 72 hour

| Structure (SMILES) | % Inhibition | Z score |
| --- | --- | --- |
| Cc1noc(C2CC2)c1NS(=O)(=O)c1ccc(CC(F)(F)F)cc1 | 7% | -0.84 |
| CC1=NO[C@](C)(c2nc(C3CC3)no2)C1 | -8% | 1.38 |
| O=C(Nc1ccnnc1)c1ccoc1C1CC1 | -2% | 0.4 |
| Cc1nn(C)cc1COc1ccccc1N | -11% | 1.24 |
| CC(=O)c1cccc(NC(=O)CN2CCN(c3cccc(Cl)c3)C2=O)c1 | -7% | 0.8 |
| Cc1ncoc1C(=O)NCCCc1scnc1C | -11% | 1.94 |
| O=C(CCCOc1ccc2c(c1)OCO2)NCCCn1ccc2cccnc21 | -12% | 1.87 |
| CN1CCN(C[C@@]2(Cc3ccccc3)CCOC2)CC1 | -3% | 0.56 |
| O=S(=O)(NC1CCCCC1N1CCN(c2ccccc2F)CC1)c1ccccc1 (stereo not given) | -8% | 0.98 |
| Cn1cccc1C(=O)NCc1ccc(OCC(F)(F)F)nn1 | -7% | 1.27 |
| CC1COCC1NC(=O)C1CCC2CCCCC2C1 (stereo not given) | -19% | 3.54 |
| CC(C)N1CN=C(NS(C)(=O)=O)NC1 | 9% | -1.43 |
| CC(C)N(CC(C)(C)O)C(=O)N[C@@H](C)c1cc(F)c(F)c(F)c1 | -3% | 0.29 |
| Cc1ccc(NC(=O)O[C@@H]2CC[C@]3(C)C(CC[C@@H](O)[C@H]3CC(=O)N3CCCC3)[C@]2(C)CO)cc1 (stereo not given in full) | -2% | 0.36 |
| O=C(Nc1nc(C(=O)N2CCc3ccccc32)co1)c1cnccn1 | -2% | 0.27 |
| Cc1ccccc1OCCNC(=O)NCc1ccoc1 | 5% | -0.8 |
| NC(=O)c1csc(CN[C@H](c2ccccn2)C2CCCC2)c1 | -7% | 0.78 |
| CCN(CC)CCCC(C)NC(=O)CC(CCc1ccccc1)c1cn(Cc2ccc(C)cc2)c2ccccc12 (stereo not given) | -9% | 1.18 |
| OCC(C1CC1)C(NCc1cccc2c1OCO2)C1CC1 (stereo not given) | -9% | 1.21 |
| N#Cc1c(F)cccc1NCc1nnc2n1CCC2 | -1% | 0.1 |
| Cc1ccc(NC(=O)c2nc(CCc3ccccc3)n(-c3ccccc3C)n2)cc1C | -5% | 0.89 |
| Fc1ccc2c(c1)-c1nc(-c3ccc(Cl)cc3)cc(-c3ccccc3)c1CO2 | -9% | 0.98 |

| Structure (SMILES) | % Inhibition | Z score |
| --- | --- | --- |
| Cc1cc(-c2ccc(S(=O)(=O)Nc3cccc(-c4ccno4)c3)cc2)on1 | 2% | -0.35 |
| CCC(=O)N1CCC[C@@](NCc2cccs2)(c2nnnn2C2CCCC2)C1 | 4% | -0.52 |
| O=C(Nc1nc2c(s1)CCCC2)C1=COCCO1 | -13% | 2.27 |
| CCC(C)C(NS(=O)(=O)c1ccc(C)cc1Cl)C(=O)NCCN1CCOCC1 (stereo not given) | -4% | 0.69 |
| O=C(C[C@@H]1C[C@@H]2C=C[C@H]1C2)NCc1cccnc1-n1cnc2ccccc21 | -5% | 1.06 |
| COc1ccc(NC(=O)Cc2n[nH]c(=O)c3cc(-c4ccc(F)cc4)nn23)cc1Cl | -11% | 1.48 |
| CCn1cc(CN(C)Cc2cc(C(C)C)on2)cn1 | 11% | -1.43 |
| CCC1CCCCC1NCC1CCS(=O)(=O)CC1 (stereo not given) | -5% | 0.67 |
| CCn1ncnc1-c1c(-c2ccccc2)ncn1C[C@H](C)Oc1cccnc1 | -7% | 1.41 |
| COc1cc([C@H]2CC(=O)Nc3c2cnn3C)ccc1OCCc1ccccc1 | -17% | 2.58 |
| O=C(NCCCCNC(=O)c1cccnc1)c1cccnc1 | 28% | -3.22 |
| COC(=O)c1cn(CN2CCC[C@H](C(F)(F)F)C2)nn1 | -8% | 1.06 |
| Cn1ccnc1[C@H]1CCN(Cc2nnc3n2CCCCC3)C1 | -8% | 1.04 |
| O=C(NC[C@H]1CCCN(c2ccncc2F)C1)c1cscn1 | 6% | -1.22 |
| COc1ccc(CCNC(=O)c2c(O)c3cccc4c3n(c2=O)[C@@H](C)C4)cc1OC | 3% | -0.44 |
| Cc1noc(C)c1CNCc1cnc2ccc(Br)cn12 | -9% | 1.81 |
| COC1CCCC1OC(=O)c1ccncc1F (stereo not given) | 6% | -0.7 |
| Cc1ccc(-c2nnc(-c3nc(NCCc4c(C)noc4C)c4ccccc4n3)o2)cc1 | 3% | -0.52 |
| Cc1cc(C)c(CNC(=O)c2ccc(-c3ccco3)[nH]c2=O)c(=O)[nH]1 | -18% | 2.5 |
| N[C@@]1(C(=O)Nc2cncc(C(F)F)c2)CCc2cc(Br)ccc2C1 | -15% | 1.64 |
| CN=C(NCc1ncc(C)s1)N1CCN(Cc2cccs2)CC1 | -3% | 0.32 |
| COCC1(S(=O)(=O)Nc2ccc(-n3ccc(=O)[nH]3)c(F)c2)CC1 | -8% | 1.46 |

| Structure (SMILES) | % Inhibition | Z score |
| --- | --- | --- |
| O=C(CN1CCC(n2cc(NS(=O)(=O)C(F)F)cn2)CC1)NCc1ccccc1 | -8% | 0.9 |
| FC1(F)CC(CN2CCOCC23CC3)C1 | 3% | -0.34 |
| Cc1nonc1CC(=O)NCc1cccnc1Oc1ccc(F)c(F)c1 | -21% | 2.67 |
| Cn1cc(-c2nc3ccccc3c(=O)[nH]2)cn1 | 8% | -0.91 |
| Cc1nc(N2CCCCCCC2)ncc1[C@H](C)NCC1CC1 | -5% | 0.77 |
| O=C(NCCOc1cccc(Cl)c1Cl)NC1CCC(O)CC1 (stereo not given) | -16% | 2.43 |
| CCc1nn(CC(=O)N[C@@H](COc2ccc(OC)cc2)C(C)C)c(=O)c2ccccc12 | -1% | 0.26 |
| Cc1cc(NC(=O)Cn2ccc(-c3scnc3C)n2)n(C)n1 | 1% | -0.12 |
| Cc1ccc(CN2CCc3nc(N4CCN(C)CC4)nc(Oc4ccc(F)cc4)c3C2)cc1 | -7% | 0.82 |
| CN(C)C(=O)N1CC[C@](c2nnnn2C2CCCC2)(N(C)C)C1 | -10% | 1.29 |
| C[C@H](NC(=O)CC1CCCCC1)C(=O)N(C)Cc1cscn1 | -10% | 1.83 |
| CC(C)(C)CC(=O)N1CCN2[C@@H](C1)CN(S(=O)(=O)c1ccccc1)CC2(C)C | 5% | -0.61 |
| O=S(=O)(C1CCCCC1)N1CC[C@@H](O)C1 | 10% | -1.28 |
| Cc1ccc(NCCc2ccc(Cl)cc2)nn1 | -7% | 1.04 |
| C[C@@H](C1CC1)n1cc(NS(=O)(=O)C2CC2)cn1 | 13% | -1.55 |
| CCc1noc(-c2cccnc2-n2cnc(C(=O)NCc3ccccc3F)c2)n1 | 35% | -3.92 |
| CCO[C@@H](C)c1nc(CN(C)c2nc(C)nc(C)c2C)cs1 | -9% | 1 |
| COc1cc(N2CCC[C@@]3(CCC(=O)N(Cc4ccccn4)C3)C2)nc(N)n1 | 7% | -1.05 |
| CCCc1nc(-c2cc3cccc(C)c3nc2NC2CCCC2)no1 | -8% | 1.27 |
| Cc1cccc(C(=O)NCc2nc([C@H]3CC(=O)N(Cc4ccccc4)C3)no2)c1 | -13% | 1.42 |
| Cc1ccc(C)c(-c2cn3c(C(=O)N[C@@H](C)c4n[nH]c(C)n4)csc3n2)c1 | -16% | 1.57 |
| Cc1cc(C(=O)NCCc2noc(C(C)C)n2)cc(C)n1 | -10% | 2.01 |

| Structure (SMILES) | % Inhibition | Z score |
| --- | --- | --- |
| CCN1C(=O)[C@@H](NC(=O)C(=O)NCc2cccnc2)c2cc(Br)ccc21 | -12% | 1.28 |
| Cc1nc(CNC(=O)N(C2CC2)[C@@H](C)C(C)C)sc1C | -11% | 0.9 |
| COc1ccc(Nc2nc(Nc3ccc(OC)cc3)nc(N3CCN(c4ccccc4)CC3)n2)cc1 | -18% | 2.36 |
| Cc1noc(C)c1Cn1nc2n(c1=O)C(=O)N(c1cccc(Cl)c1)C2 | 7% | -1.4 |
| CCCN(CC(F)F)C(=O)[C@H](C)NC(=O)c1ccoc1 | 4% | -0.51 |
| Cc1ccc(OS(=O)(=O)c2ccc3c(c2)NC(=O)CO3)c(Br)c1 | -5% | 0.38 |
| CCN1C(=O)C2(CCN(S(=O)(=O)c3c(C)nn(C)c3C)CC2)c2ccccc21 | -2% | 0.29 |
| CC(C)[C@H]1CN(C(=O)COCc2ccccc2)C[C@@H]1N(C)C | -19% | 2.18 |
| O=C(c1cc2nc(C(F)F)cc(C(F)F)n2n1)N1CCCC1 | 0% | -0.02 |
| Cc1ccc(Oc2ncccc2CNC(=O)[C@H](C)N2CCCC2=O)cn1 | -7% | 1.19 |
| CN(C[C@H]1CCCOC1)c1nccn2ccnc12 | -21% | 2.76 |
| CC1=CCN(S(=O)(=O)c2cccc(C(=O)Nc3cccnc3)c2)CC1 | -14% | 2.46 |
| O=C(O)COc1ccccc1[C@H]1Nc2ccccc2C(=O)N1c1ccc2c(c1)OCO2 | 36% | -3.03 |
| CCc1nnc(-c2nnc(NCCN(CC)CC)c3ccccc23)o1 | -8% | 0.89 |
| CCc1noc2nc(C)nc(N3CCC[C@H](C(=O)NCCc4ccc(OC)c(OC)c4)C3)c12 | 1% | -0.1 |
| C[C@](O)(CNC(=O)Nc1ccn(CCC#N)n1)C1CCCCC1 | -9% | 0.91 |
| CCCN(Cc1ccsc1)S(=O)(=O)C1CC1 | 14% | -1.72 |
| Cc1cc(CN(CC(=O)O)Cc2cccc(Br)c2)nn1C | -10% | 1.72 |
| COc1ccc(Cl)cc1C(=O)Nc1nnc(-c2cc(C)oc2C)o1 | -10% | 1.51 |
